Laboratory results as given in PubChem BioAssay AID1468 (National Center for Advancing Translational Sciences (NCATS), 2008).
Among all 280,000 compounds or so, about 1,100 (0.39%) were called active. The shares of active, inactive and inconclusive entries below differ from those in the screen. Calls follow the shape of the dose curve; as a rule, active = well fitted inhibition curve with a large enough effect; inconclusive = small, poorly fitted or top-dose-only effect, or effect the other way; inactive = flat fitted curve, though single readings scatter. No potency is given beside an inconclusive call; the fits are too rough.

The compounds below were run against Microtubule-associated protein tau (Homo sapiens) (UniProt P10636) (assay: qHTS for Inhibitors of Tau Fibril Formation, Fluorescence Polarization). Conditions: K18 P301L tau heparin fibrillization, Alexa594 FP, 6 h; series mostly up to 57.7 µM.
Text: NIH Molecular Libraries Probe Production Network [MLPCN]
NIH Chemical Genomics Center [NCGC]
Assay Provider: Carlo Ballatore, University of Pennsylvania
The microtubule-associated protein tau is an abundant protein in the axons of neurons that stabilizes microtubules. With its ability to modulate microtubule dynamics, tau contributes directly or indirectly, to key structural and regulatory cellular functions. Particularly important is the influence tau exerts on axonal transport, which allows signaling molecules, trophic factors and other essential cellular constituents to travel along the axons. Under pathological conditions, tau becomes sequestered into insoluble aggregates called neurofibrillary tangles. This phenomenon is believed to have pathological consequences by promoting axonal transport deficits that ultimately lead to synaptic dysfunction and neuronal loss. To identify inhibitors of tau aggregation, a heparin-induced tau fibril formation assay was used that employed a recombinantly expressed fragment of tau, K18 (Q242-E372), bearing a P301L mutation (Gustke et al. 1994; Hong et al. 1998).
Gustke, N., B. Trinczek, et al. (1994). "Domains of tau protein and interactions with microtubules." Biochemistry 33(32): 9511-22.
Hong, M., V. Zhukareva, et al. (1998).
Li, W. and V. M. Lee (2006). "Characterization of two VQIXXK motifs for tau fibrillization in vitro." Biochemistry 45(51): 15692-701.
von Bergen, M., S. Barghorn, et al. (2001). "Mutations of tau protein in frontotemporal dementia promote aggregation of paired helical filaments by enhancing local beta-structure." J Biol Chem 276(51): 48165-74.
NCGC Assay Protocol Summary:
For screening, 2 uL/well human K18 P301L (15 uM unlabeled and 0.24 uM Alexa 594-labeled tau final concentrations) in reagent buffer (100 mM sodium acetate pH 7) was dispensed into black solid 1536-well plates (Grenier) using a solenoid-based dispenser. Following transfer of 23 nL compound or DMSO vehicle by a pin tool, 2 uL/well heparin (20 uM final concentration) in reagent buffer was added and the plate centrifuged 15 s at 1000 RPM. Plates were incubated 6 hr at 37 C and then 1 uL/well ThT (30 uM final concentration) was added. After a 1 hr ambient incubation, the plates were read by an Envision (Perkin Elmer) to monitor Alexa 594 FP (555 nm excitation and 632 nm emission).
Keywords: NIH Roadmap, MLPCN, MLI, MLSMR, NCGC, qHTS, tau, tauopathies, Alzheimer's disease, fibril, neurodegeneration, aggregation
Also: nearly all actives have a fitted effect of over 55% in size.
Potency is read from the fitted curve at half-maximal effect; tags tell the direction and shape of the fitted curve.

Sequence of UniProt P10636 (P10636 whole entry, looked up): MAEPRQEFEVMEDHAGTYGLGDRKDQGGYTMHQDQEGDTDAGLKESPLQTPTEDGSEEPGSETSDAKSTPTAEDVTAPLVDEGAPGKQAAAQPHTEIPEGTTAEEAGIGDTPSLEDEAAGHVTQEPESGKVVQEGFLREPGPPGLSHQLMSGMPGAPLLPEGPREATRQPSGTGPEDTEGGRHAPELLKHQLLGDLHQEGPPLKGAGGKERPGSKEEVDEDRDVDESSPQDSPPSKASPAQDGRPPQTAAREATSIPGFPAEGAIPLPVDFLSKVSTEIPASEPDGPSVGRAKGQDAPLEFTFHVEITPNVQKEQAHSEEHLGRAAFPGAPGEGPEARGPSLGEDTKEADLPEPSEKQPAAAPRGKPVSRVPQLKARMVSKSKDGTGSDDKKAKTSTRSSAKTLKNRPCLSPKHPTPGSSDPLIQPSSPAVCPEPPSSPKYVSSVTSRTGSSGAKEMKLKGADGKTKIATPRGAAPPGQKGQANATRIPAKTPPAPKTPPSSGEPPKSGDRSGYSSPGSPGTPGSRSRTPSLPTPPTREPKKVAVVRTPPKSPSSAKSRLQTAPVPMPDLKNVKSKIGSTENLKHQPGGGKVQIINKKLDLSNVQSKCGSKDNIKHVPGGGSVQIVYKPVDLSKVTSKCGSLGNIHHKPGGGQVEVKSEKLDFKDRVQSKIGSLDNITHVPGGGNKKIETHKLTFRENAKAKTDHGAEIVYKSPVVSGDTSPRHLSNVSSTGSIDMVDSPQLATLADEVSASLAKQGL

Structure (SMILES) | Potency
COc1ccc(-c2[nH]c(-c3cc(OC)c4c(c3)OCO4)nc2-c2ccccc2)cc1 | inconclusive [activator, full curve, poor fit]
O=C(CSc1nnc2c(n1)[nH]c1ccc(F)cc12)OCc1ccccc1 | inconclusive [inhibitor, partial curve]
CCOC(=O)/C(C(N)=NCCO)=C(/O)c1ccccc1 | inconclusive [inhibitor, single point]
COC(=O)c1ccc(CC(=O)c2nc3ccccc3s2)cc1 | inactive
Cc1ccc(CN(C(=O)Nc2cccc(Cl)c2)c2ccccn2)cc1 | inconclusive [inhibitor, partial curve]
O=S(=O)(c1ccc2c(c1)N(Cc1ccc(Cl)cc1)C1CCCN21)N1CCOCC1 (centres undefined) | inconclusive [inhibitor, full curve, poor fit]
COCCN=c1scc(-c2ccc3c(c2)NC(=O)CO3)n1/N=C(\C)c1ccc(O)cc1 | inconclusive [activator, partial curve, poor fit]
COC(=O)C1=C(C)N(Cc2ccco2)C(=O)C1 | inconclusive [inhibitor, partial curve]
COc1ccc(NS(=O)(=O)c2ccc(NC(=O)Cc3cccs3)cc2)cc1 | inconclusive [inhibitor, single point]
CCOC(=O)c1c(C)[nH]c(C)c1S(=O)(=O)N1CCN(c2cccc(C(F)(F)F)c2)CC1 | inconclusive [inhibitor, single point]
CCN(CC)C(=O)Cn1c(=O)n(-c2ccc(Cl)cc2)c(=O)c2c3c(sc21)CCC3 | inactive
Cc1ccc(S(=O)(=O)N2CCC(C(=O)Nc3ccc(C)c(Cl)c3)CC2)cc1 | inconclusive [inhibitor, single point]
O=C(CC1C(=O)N(c2ccc(Cl)cc2)C(=S)N1CCc1ccncc1)Nc1ccc(F)cc1 (centres undefined) | inconclusive [inhibitor, partial curve]
CCN1CCN(CCNC(=O)c2ccc3c(c2)N(Cc2ccc(F)cc2)C(=O)/C(=C/c2ccccc2)S3)CC1 | inconclusive [inhibitor, full curve]
O=C(Cc1cccs1)OCC(=O)c1ccco1 | inconclusive [inhibitor, single point]
N#C/C(=C\C1=C(N2CCOCC2)C(=C\c2ccccc2)/CC1)C(=O)Nc1ccccc1F | active: 25.1 µM
COc1ccc(/C=N\NC(=O)c2c(C)nc3ccc(Br)cn23)cc1 | inconclusive [inhibitor, single point]
COc1cc(C(=O)c2nccc3cc(OC)c(OC)cc23)c([N+](=O)[O-])cc1OC | inactive
CCC1C/C(=C\c2cccnc2)C(=O)/C(=C/c2cccnc2)C1 (centres undefined) | inconclusive [inhibitor, partial curve]
CCOC(=O)c1cc(OC(=O)c2ccccc2C)n(-c2ccccc2)n1 | inactive
OCCCNc1nc(-c2ccccc2)nc2c1oc1ccccc12 | inconclusive [inhibitor, partial curve]
COCCN(C(=O)Cc1cccs1)C(C(=O)NC1CCCC1)c1ccc(OC)c(OC)c1 (centres undefined) | inactive

Structure (SMILES) | Potency
CCCCCCc1ccc(O)cc1O | inconclusive [activator, single point]
Cc1ccnc(-n2sc3ccccc3c2=O)n1 | active: 25.1 µM
Cc1ccc(Cl)cc1NC(=S)N(Cc1ccco1)C(C)c1cccs1 (centres undefined) | inconclusive [inhibitor, single point]
CCC(C)c1ccc(NC(=O)c2cccs2)cc1 (centres undefined) | inconclusive [inhibitor, single point]
CS(=O)(=O)N1CCN(c2ccc([N+](=O)[O-])cc2F)CC1 | inactive
Cc1cc(Nc2ccc(Cl)cc2)nc(NCc2ccccc2)n1 | inconclusive [inhibitor, single point]
Cc1ccc(CCNC(=O)c2ccc3c(c2)N(Cc2cccc(Cl)c2)C(=O)c2ccccc2S3(=O)=O)cc1 | inconclusive [inhibitor, single point]
CCC(NS(=O)(=O)c1ccc(OC)cc1)C(=O)O (centres undefined) | inconclusive [activator, single point]
Cc1cc(C)cc(OC(C)C(=O)Nc2c(C(=O)c3ccccc3)oc3ccccc23)c1 (centres undefined) | inconclusive [inhibitor, partial curve]
O=C(Nc1nnc(Cc2ccc(Cl)cc2)s1)C1CCCO1 (centres undefined) | inactive
COc1cc(CN2CCCC(C(=O)c3ccc4c5c(cccc35)CC4)C2)cc(OC)c1O (centres undefined) | inconclusive [inhibitor, single point]
NC(Cc1ccc(O)c(O)c1)C(=O)O (centres undefined) | active: 25.1 µM
CCCCn1c(N)c(S(=O)(=O)c2ccc(C)cc2)c2nc3ccccc3nc21 | inconclusive [inhibitor, single point]
CSc1ccc(/C=C/c2nc3ccccc3n2S(=O)(=O)c2cccc(Cl)c2)cc1 | inconclusive [inhibitor, partial curve, poor fit]
c1coc(-c2nc3n(n2)C2(CCCCC2)[C@@H]2CCCC[C@@H]2N3)c1 | inactive
CC(C)C(=O)N1CCN(c2nc(-c3ccc(Cl)cc3)cs2)CC1 | inactive
O=C(/C=C/Nc1ccccc1Br)c1ccccn1 | inactive
O=C(CSc1nnc(-c2ccncc2)n1Cc1ccco1)c1ccc(Cl)cc1 | inconclusive [inhibitor, single point]
CC(=O)c1ccc(OC(=O)C2CC(=O)N(c3cccc(C)c3)C2)cc1 (centres undefined) | inconclusive [activator, single point]
O=[N+]([O-])c1cc(Cl)ccc1Oc1ccc(-c2nnco2)cc1 | inactive
O=C(NC(Cc1c[nH]c2ccccc12)C(=O)Nc1ccc(OC(F)(F)F)cc1)c1cccs1 (centres undefined) | inconclusive [inhibitor, single point]
O=c1[nH]c2ccccc2nc1/C=C(\O)c1cccs1 | inconclusive [inhibitor, full curve, poor fit]
